According to the supplement of paper PMC8792480:
Where a name gives a salt, the structure may show the parent alone. This is one part of the list. Single values are uncertain, as repeats are few or missing.

What follows are compounds tested on A549 (assay: cell-surface PD-L1 MFI ratio relative to cisplatin alone (isotype-subtracted); higher = higher PD-L1 surface expression). Settings: inducer: cisplatin 4 uM; 10 µM; 24 h.
Experimental: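 A549 and H460 NSCLC cells were treated with each library drug at 10 uM, then with radiation (8 Gy) or cisplatin (4 uM), and incubated for 24 h. Cell-surface PD-L1 was measured by flow cytometry as an MFI ratio: (MFI drug+inducer - MFI isotype)/(MFI inducer alone - MFI isotype). Hits were defined as ratio < 0.75.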
`CN1CCN(Cc2ccc(-c3cnc4[nH]cc(-c5ccc6[nH]ccc6c5)c4c3)cc2)CC1` was tested, and the “cell-surface PD-L1 MFI ratio” value was inactive: 1.31.
In the case of `CC(=O)Nc1cccc(-n2c(=O)n(C3CC3)c(=O)c3c(Nc4ccc(I)cc4F)n(C)c(=O)c(C)c32)c1`, the “cell-surface PD-L1 MFI ratio” value was inactive: 0.782.
`COc1cc2nc(N3CCCN(C)CC3)nc(NC3CCN(Cc4ccccc4)CC3)c2cc1OC` was tested, and the “cell-surface PD-L1 MFI ratio” value was inactive: 1.26.
In the case of `Oc1ccc(Nc2nc(-c3ccc(Cl)cc3)cs2)cc1`, the “cell-surface PD-L1 MFI ratio” value was active: 0.667.
In the case of `O=c1cc(N2CCOCC2)oc2c(-c3cccc4c3sc3ccccc34)cccc12`, the “cell-surface PD-L1 MFI ratio” value was active: 0.392.
`O=C(CCCCCCC(=O)Nc1ccccc1)NO` [Vorinostat (SAHA, MK0683)] was tested, and the “cell-surface PD-L1 MFI ratio” value was inactive: 1.58.
For `CCc1cncnc1N1CCN(Cc2nc3ccc(C(F)(F)F)cc3[nH]2)CC1`, the “cell-surface PD-L1 MFI ratio” value was inactive: 1.26.
`CC1(C)C(=O)N(CCN2CCC(C(=O)c3ccc(F)cc3)CC2)c2ccccc21` was tested, and the “cell-surface PD-L1 MFI ratio” value was inactive: 0.971.
For `CC[C@H](NC(=O)[C@H](C)NC)C(=O)N1C[C@@H](O)C[C@H]1Cc1c(-c2[nH]c3cc(F)ccc3c2C[C@@H]2C[C@H](O)CN2C(=O)[C@H](CC)NC(=O)[C@H](C)NC)[nH]c2cc(F)ccc12` [Birinapant], the “cell-surface PD-L1 MFI ratio” value was active: 0.661.
In the case of `CN1c2ccccc2C(=O)Nc2cnc(Nc3ccc(N4CCC(O)CC4)cc3)nc21`, the “cell-surface PD-L1 MFI ratio” value was inactive: 1.15.
In the case of `COc1cc(N2CCN(C)CC2)ccc1Nc1nccc(-c2cn(C)c3cnccc23)n1`, the “cell-surface PD-L1 MFI ratio” value was inactive: 1.05.
`COc1cc(Br)c(Nc2nc(-c3c(C)nc4ncccn34)cs2)c(Br)c1` was tested, and the “cell-surface PD-L1 MFI ratio” value was inactive: 0.882.
With `Cc1cccc(CC(=O)N2CCc3c2ccc(-c2cn(C)c4ncnc(N)c24)c3F)n1` the “cell-surface PD-L1 MFI ratio” value was active: 0.702.
`C[C@@H]1COCCN1c1cc(C2([S@](C)(=N)=O)CC2)nc(-c2cc[nH]c3nccc2-3)n1` was tested, and the “cell-surface PD-L1 MFI ratio” value was inactive: 1.44.
In the case of `CC(=O)c1c(C)c2cnc(Nc3ccc(N4CCNCC4)cn3)nc2n(C2CCCC2)c1=O`, the “cell-surface PD-L1 MFI ratio” value was active: 0.714.
For `CCn1c2ccccc2c2cc(-n3nncc3-c3ccccc3)ccc21`, the “cell-surface PD-L1 MFI ratio” value was inactive: 2.38.
With `Cc1cc(Nc2cc(N)ncn2)c(=O)n2c1C(=O)NC21CCCCC1` [Tomivosertib (eFT-508)] the “cell-surface PD-L1 MFI ratio” value was inactive: 0.823.
In the case of `NC(=O)C1CCCc2c1[nH]c1ccc(Cl)cc21` (stereo not given) [Selisistat (EX 527)], the “cell-surface PD-L1 MFI ratio” value was active: 0.65.
In the case of `CCN(CC)CCNC(=O)c1c(C)[nH]c(/C=C2\C(=O)Nc3ccc(F)cc32)c1C` [Sunitinib], the “cell-surface PD-L1 MFI ratio” value was inactive: 32.6.
With `Cc1[nH]c2ccccc2c1CCNCc1ccc(/C=C/C(=O)NO)cc1` [Panobinostat] the “cell-surface PD-L1 MFI ratio” value was inactive: 2.17.
In the case of `Cc1ccc(CNc2ncnc3ccc(-c4ccc(CO)o4)cc23)o1`, the “cell-surface PD-L1 MFI ratio” value was active: 0.583.
`COc1ccc2c(c1)[C@]1(C[C@H]1c1ccc3c(/C=C/c4ccc(CN5C[C@@H](C)O[C@@H](C)C5)cc4)n[nH]c3c1)C(=O)N2` was tested, and the “cell-surface PD-L1 MFI ratio” value was inactive: 1.2.
For `C=CCn1c(=O)c2cnc(Nc3ccc(N4CCN(C)CC4)cc3)nc2n1-c1cccc(C(C)(C)O)n1` [Adavosertib (MK-1775)], the “cell-surface PD-L1 MFI ratio” value was inactive: 0.87.
In the case of `O=C1[C@H](Cc2ccc(O)cc2)N2C(=O)CCN(C(=O)NCc3ccccc3)[C@H]2CN1Cc1cccc2ccccc12`, the “cell-surface PD-L1 MFI ratio” value was inactive: 2.29.
`CC(C)n1c(=O)n(C)c2cnc3cc(F)c(-c4ccc(OCCCN5CCCCC5)nc4)cc3c21` was tested, and the “cell-surface PD-L1 MFI ratio” value was inactive: 1.1.
With `CCOc1cc2ncc(C#N)c(Nc3ccc(OCc4ccccn4)c(Cl)c3)c2cc1NC(=O)/C=C/CN(C)C` [Neratinib (HKI-272)] the “cell-surface PD-L1 MFI ratio” value was inactive: 0.841.
With `O=C(N/N=C/c1ccc([N+](=O)[O-])o1)c1ccc(O)cc1` [Nifuroxazide] the “cell-surface PD-L1 MFI ratio” value was inactive: 0.788.
In the case of `Cc1[nH]c(/C=C2\C(=O)Nc3ccc(S(=O)(=O)Cc4c(Cl)cccc4Cl)cc32)c(C)c1C(=O)N1CCC[C@@H]1CN1CCCC1`, the “cell-surface PD-L1 MFI ratio” value was inactive: 4.82.
`Cc1cc(C(C)Nc2ccccc2)c2nc(N3CCOCC3)cc(=O)n2c1` (stereo not given) was tested, and the “cell-surface PD-L1 MFI ratio” value was inactive: 0.798.
For `C[C@]1(c2nc3c(C(N)=O)cccc3[nH]2)CCCN1` [Veliparib (ABT-888)], the “cell-surface PD-L1 MFI ratio” value was active: 0.427.
`CC(C)(C)c1cc(NC(=O)Nc2ccc(-c3cn4c(n3)sc3cc(OCCN5CCOCC5)ccc34)cc2)no1` [Quizartinib (AC220)] was tested, and the “cell-surface PD-L1 MFI ratio” value was active: 0.714.
With `CN(CC(=O)N(Cc1ccc(C2CCCCC2)cc1)c1ccc(C(=O)O)cc1)S(=O)(=O)c1c(F)c(F)c(F)c(F)c1F` the “cell-surface PD-L1 MFI ratio” value was inactive: 0.868.
With `N#CC1(c2ccc(NC(=O)c3cccnc3NCc3ccncc3)cc2)CCCC1` [Apatinib] the “cell-surface PD-L1 MFI ratio” value was active: 0.739.
With `CC(C)N(C[C@H]1O[C@@H](n2cnc3c(N)ncnc32)[C@H](O)[C@@H]1O)[C@H]1C[C@@H](CCc2nc3cc(C(C)(C)C)ccc3[nH]2)C1` [Pinometostat (EPZ5676)] the “cell-surface PD-L1 MFI ratio” value was active: 0.453.
With `CN1CCN(CCOc2cc(OC3CCOCC3)c3c(Nc4c(Cl)ccc5c4OCO5)ncnc3c2)CC1` [Saracatinib (AZD0530)] the “cell-surface PD-L1 MFI ratio” value was active: 0.562.
With `CC(C)(C)Cn1c(N)nc2ccc(-c3[nH]c(C(C)(C)C)nc3-c3ccc(F)cc3)nc21` the “cell-surface PD-L1 MFI ratio” value was inactive: 1.06.
`Cc1cc(-c2ncc(CC(=O)Nc3ccc(-c4cnccn4)cn3)cc2C)ccn1` was tested, and the “cell-surface PD-L1 MFI ratio” value was active: 0.591.
With `O=C1CCc2c(Oc3ccc4c(c3)[C@@H]3[C@H](O4)[C@H]3c3nc4cc(C(F)(F)F)ccc4[nH]3)ccnc2N1` [Lifirafenib (BGB-283)] the “cell-surface PD-L1 MFI ratio” value was inactive: 1.12.
For `CNC(=O)c1cc(Oc2ccc3nc(N[C@@H]4CCCC[C@H]4O)sc3c2)ccn1`, the “cell-surface PD-L1 MFI ratio” value was inactive: 1.05.
With `Cc1cc(O)c(-c2ccc([C@@H](C)CN)cc2)c2c1[nH]c(=O)c1sccc12` [OTS514 hydrochloride] the “cell-surface PD-L1 MFI ratio” value was inactive: 1.59.
